According to PubChem BioAssay AID488969 (Vanderbilt High Throughput Screening Facility, 2010):
In all, about 110,000 compounds were measured (“z-score”: median about -0.1, highest 2% from about 2 on). This is one part of the list.

The molecules below were run against Metabotropic glutamate receptor 8 (Rattus norvegicus) (UniProt P70579) (assay: rat mGluR8 modulators via GIRK flux, primary screen, cell-based, thallium flux, HTS (AID 488969)). Settings: HEK293 rat mGluR8, GIRK (G protein-gated inwardly rectifying potassium channel) thallium flux, FluoZin2; at 10 µM; stronger effect = higher value; submaximal glutamate (EC20) added with thallium.
Chain of UniProt P70579 (P70579 whole entry, looked up): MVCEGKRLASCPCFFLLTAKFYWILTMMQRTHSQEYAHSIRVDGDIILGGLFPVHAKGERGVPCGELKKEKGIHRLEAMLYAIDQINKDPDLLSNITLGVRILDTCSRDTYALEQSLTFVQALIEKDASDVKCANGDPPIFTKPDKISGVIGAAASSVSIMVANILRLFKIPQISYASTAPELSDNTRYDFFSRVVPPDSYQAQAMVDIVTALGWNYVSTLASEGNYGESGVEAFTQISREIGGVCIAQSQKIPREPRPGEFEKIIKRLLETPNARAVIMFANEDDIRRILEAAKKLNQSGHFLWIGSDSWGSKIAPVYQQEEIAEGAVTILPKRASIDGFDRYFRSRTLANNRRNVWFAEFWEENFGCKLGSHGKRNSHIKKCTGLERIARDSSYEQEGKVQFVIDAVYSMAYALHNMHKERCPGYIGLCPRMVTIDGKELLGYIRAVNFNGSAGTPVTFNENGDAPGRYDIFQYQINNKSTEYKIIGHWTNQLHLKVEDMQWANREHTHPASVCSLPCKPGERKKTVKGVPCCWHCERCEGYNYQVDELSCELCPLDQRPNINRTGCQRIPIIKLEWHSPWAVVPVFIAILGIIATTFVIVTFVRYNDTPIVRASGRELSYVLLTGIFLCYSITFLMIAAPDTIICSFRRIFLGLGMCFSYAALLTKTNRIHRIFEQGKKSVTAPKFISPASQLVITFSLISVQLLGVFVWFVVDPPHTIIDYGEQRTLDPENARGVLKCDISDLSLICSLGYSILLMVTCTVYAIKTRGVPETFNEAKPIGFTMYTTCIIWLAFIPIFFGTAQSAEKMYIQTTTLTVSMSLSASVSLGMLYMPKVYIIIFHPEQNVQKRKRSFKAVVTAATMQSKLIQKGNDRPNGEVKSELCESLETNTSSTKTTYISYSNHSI

| SMILES | z-score |
| --- | --- |
| O=C(CSc1nnc(CNC(=O)c2c(F)cccc2Cl)o1)NCc1ccc2c(c1)OCO2 | -0.485 |
| CCn1c(SCC(=O)N2CCN(c3cccc(Cl)c3)CC2)nc2ccccc2c1=O | -1.27 |
| COc1ccc(-n2c(CCc3ccccc3)nnc2SCC(=O)c2ccc(Cl)cc2)cc1 | -0.265 |
| CCCOc1ccccc1C1NC(=O)NC(C)=C1C(=O)OCCOC(C)C (stereo unspecified) | -0.228 |
| CCOc1ccc(S(=O)(=O)N/N=C2/CCCC(=O)C2)cc1 | -0.192 |
| C/C(CC(=O)NCc1ccco1)=N\NC(=O)COc1ccc(C)cc1 | -0.096 |
| Cc1ccc(CNC(=O)c2ccc(N3CCCC3=O)cc2)cc1 | -0.00989 |
| N#Cc1ccc(NC(=O)COC(=O)CCc2ccc(S(=O)(=O)N3CCCCC3)cc2)cc1 | 0.758 |
| Cc1ccc(C2=Nc3ccccc3NC(C)(c3ccc(C)o3)C2)o1 (stereo unspecified) | -0.367 |
| CCCN1CCc2[nH]c(=S)[nH]c(=O)c2C1 | -0.17 |
| CC(C)CC(=O)NC(NC(=S)Nc1cccc2cccnc12)C(Cl)(Cl)Cl (stereo unspecified) | 0.0214 |
| O=C(O)CCC(=O)NNC(=O)c1cccc(Cl)c1 | -0.0693 |
| COc1ccccc1NC(=O)N(Cc1ccco1)Cc1cc2ccc(C)c(C)c2[nH]c1=O | -1.77 |
| CCSCCOC(=O)C1=C(C)NC(=O)NC1c1ccc2c(c1)OCO2 (stereo unspecified) | -0.281 |
| COc1ccccc1NC(=O)c1ccc(NC(=O)COC(=O)C2CC2C)cc1 (stereo unspecified) | -0.322 |
| CNC(=O)N(O)C1N(NC(=O)Nc2ccccc2)C(=S)SC1(C)C (stereo unspecified) | -0.139 |
| CC1(c2ccccc2)CC(C)(C)N(C(=O)c2cc([N+](=O)[O-])cc([N+](=O)[O-])c2)c2ccccc21 (stereo unspecified) | -0.215 |
| CCNC(=O)CCSc1nc2cc(Cl)ccc2o1 | 0.975 |
| Cc1ccccc1CN1CCN(C(=O)c2cccc(F)c2)CC1 | 0.283 |
| COc1ccc2cc3c(N)nn(C(=O)c4ccc(Cl)c([N+](=O)[O-])c4)c3nc2c1 | 0.25 |
| CC12CN(C(=O)c3ccc(Cl)cc3)C3(C#N)CC1CCC23C (stereo unspecified) | -0.436 |
| O=C1OC(c2ccccc2)=N/C1=C/c1cccc(OC(=O)c2cccs2)c1 | -0.225 |
| COc1ccc(Cc2nc3ccc(S(=O)(=O)N4CCOCC4)cc3[nH]2)cc1OC | -1.43 |

| SMILES | z-score |
| --- | --- |
| CCOc1ccc(N2C(=O)CC(SC(=NC)Nc3cccc(F)c3)C2=O)cc1 (stereo unspecified) | -0.588 |
| COc1ccc(N2CCN(CCNC(=O)Nc3ccc(Cl)cc3)CC2)cc1 | 0.451 |
| CC(=O)Nc1ccc2[nH]c(C)cc(=O)c2c1 | -0.295 |
| CC(C)(C)C1CCC(OC(=O)CCC(=O)Nc2ccccc2)CC1 (stereo unspecified) | 0.804 |
| CCOc1ccc(C(=O)Nc2ccc(NC(=S)NC(=O)CC)cc2)cc1Cl | -0.266 |
| CCOC(=O)c1cc(C)n(-n2cnnc2)c1C | 0.148 |
| COc1cc(/C=N/OCC(=O)Nc2cc(C)on2)ccc1OCc1ccccc1 | -0.018 |
| COc1cccc2c1C(=O)O/C2=C/c1ccc2c(c1)OCO2 | -0.319 |
| CCn1cc(C(=O)NCCCOC)c(=O)c2cc(S(=O)(=O)N(C)C3CCCCC3)ccc21 | -0.838 |
| O=C(CSc1nnc(Cc2ccccc2)o1)NCCc1ccccc1 | -0.513 |
| COc1ccccc1NC(=O)COC(=O)[C@@H]1CCCN1C(=O)c1cccs1 | 0.249 |
| O=C1C2C3c4ccccc4C(c4ccccc43)C2C(=O)N1Cc1cccnc1 (stereo unspecified) | -0.974 |
| O=C1NC(c2ccccc2)=NC1(NS(=O)(=O)c1ccccc1)C(F)(F)F (stereo unspecified) | -0.0967 |
| O=S(=O)(NCCc1ccccc1)c1ccccc1 | -0.0483 |
| FC(F)(F)c1cc(-c2ccc(Cl)cc2)nc(NCc2cccnc2)n1 | 0.00121 |
| Cc1ccc2c(Cl)cc(Cl)c(OCC(=O)NC(=O)NCc3ccco3)c2n1 | -0.127 |
| Cc1c(Cl)cccc1NC(=O)COc1ccc(S(=O)(=O)N2CCOCC2)cc1 | -0.297 |
| COCCn1nnnc1C(c1cccs1)N1CCN(c2cc(C)ccc2C)CC1 (stereo unspecified) | -0.182 |
| CCCC(=O)Nc1ccc2c(c1)nc(CN1CCN(C(C)=O)CC1)n2C | -0.287 |
| COc1cc2ccccc2cc1C(=O)O | -0.553 |
| O=C(NCCN1CCC(Cc2ccccc2)CC1)C1CCCN(S(=O)(=O)c2cnc[nH]2)C1 (stereo unspecified) | 0.174 |
| O=C(CSc1nnc(NC(=O)C2CC2)s1)Nc1ccc(F)cc1 | 1.56 |
| COc1cc(NC(=O)Nc2cccc(C(C)=O)c2)cc(OC)c1OC | -0.534 |

| SMILES | z-score |
| --- | --- |
| CCn1ncc(/C=N/N=C2\CCC3C4CCc5cc(O)ccc5C4CCC23C)c1C (stereo unspecified) | -0.125 |
| c1cc2c(cc1C1CCCCC1)c1c3n2CCN=C3CCC1 | 0.729 |
| Cc1cc(C)n(CC(=O)N/N=C/c2cccc([N+](=O)[O-])c2)n1 | 1.04 |
| O=C1CCC(=O)N1CCOP1(=O)COc2ccccc2OC1 | 1.13 |
| O=C(O)CCCC(=O)N1CCN(c2cccc(Cl)c2)CC1 | -0.652 |
| Cc1cc(NC(=O)COC(=O)c2ccc(S(=O)(=O)N3CCCc4ccccc43)cc2)no1 | -0.137 |
| C/C(N)=C(/C#N)C(=O)COC(=O)c1ccncc1 | -0.271 |
| Cc1nnc(NC(=O)CCCN2C(=O)c3ccccc3C2=O)s1 | -0.000922 |
| CCOC(=O)c1c(NC(=O)Cc2cccs2)sc(C(=O)NC2CCCC2)c1C | -0.101 |
| Cc1nc2cc(S(=O)(=O)N3CCC(C(=O)O)CC3)ccc2n1C1CCCC1 | 0.236 |
| COC(=O)c1c(NC(=O)c2cnccn2)sc2c1CCC2 | 0.367 |
| COc1ccc(S(=O)(=O)N2CCCC(C(=O)Nc3cccnc3)C2)cc1Cl (stereo unspecified) | 0.085 |
| Cc1ccc(S(=O)(=O)NC(C)(C)CSc2nnc(Nc3ccccc3)s2)cc1 | 0.099 |
| CC1=Nn2c(nnc2-c2ccccc2Cl)SC1 | 0.265 |
| Cc1ccc(-c2noc(CCC(=O)NCCCN3CCN(c4ccc(F)cc4)CC3)n2)cc1 | 1.06 |
| O=C(NC12CC3CC(CC(C3)C1)C2)C1CC(=O)N(c2ccc(Br)cc2)C1 (stereo unspecified) | -0.174 |
| C=CCn1c(N)c(C(=O)OCC)sc1=S | -0.398 |
| CCOC(=O)N1CCC(N2CC34C=CC(O3)C(C(=O)Nc3ccc(C)cc3)C4C2=O)CC1 (stereo unspecified) | 1.02 |
| CCNc1nc(NC(C)(C)C)nc(N2CCCC2)n1 | -0.285 |
| Cn1c(CCCNC(=O)c2cccs2)nc2ccccc21 | -0.219 |
| N#CC1=C(SCc2ccccc2)NC(=O)CC1c1cccc(O)c1 (stereo unspecified) | 0.304 |
| O=C(NCc1cccnc1)NC1(C(F)(F)F)Oc2ccc(Cl)cc2O1 (stereo unspecified) | -0.363 |
| CCCCN=C1NC(=O)C(CC(=O)NCCc2ccc(OC)cc2)S1 (stereo unspecified) | -0.557 |

| SMILES | z-score |
| --- | --- |
| O=C(N/N=C\c1cc(Cl)ccc1O)c1ccc(S(=O)(=O)N2CCCCC2)cc1 | -0.759 |
| COc1ccccc1-c1c(C)nn2c(N3CCN(c4ccccc4OC)CC3)cc(C)nc12 | -0.615 |
| COc1cc(C(=O)OCc2cc3ccccc3[nH]c2=O)cc(OC)c1OC | 0.0343 |
| CCOc1cc(NC(=O)c2ccco2)c(OCC)cc1NC(=O)COc1ccccc1 | -0.123 |
| CC(C)(C)c1cc(NC(=O)c2cccnc2)no1 | 0.249 |
| CCC(=O)N1CCN(c2ccc(Cl)cc2NC(=O)Cc2ccc(Cl)cc2)CC1 | -1.56 |
| CC1CCc2nc(NC(=O)C3CCCO3)sc2C1 (stereo unspecified) | -0.102 |
| c1cncc(-c2nc3c(ccc4ccccc43)[nH]2)c1 | -0.688 |
| Cc1cc(CNC(=O)Nc2ccc3c(c2)OCO3)nn1C | -0.218 |
| N#CC(c1ccccc1F)(c1ncc(C(F)(F)F)cc1Cl)N1CCOCC1 (stereo unspecified) | -0.0239 |
| O=C(CSCc1nc2ccccc2[nH]1)Nc1ccc2ccccc2c1 | -0.0941 |
| Nc1ccccc1OCCOCCOCCOc1ccccc1N | 0.104 |
| CC(=O)Nc1cc(C(=O)N2CCCC2)ccc1Sc1ccc(Cl)cc1 | -0.0685 |
| Oc1ccccc1C1N=C(c2ccccc2)NC(c2ccccc2)=N1 | 0.132 |
| CC(C)CC(=O)NC(=S)Nc1ccccn1 | -0.211 |
| COc1ccc(-n2c(C)cc(C(=O)COc3ccc(-n4cnnn4)cc3)c2C)cc1 | -0.144 |
| c1ccc2c(-c3nn4nnnc4c4ccccc34)cccc2c1 | -1.88 |
| CC(=O)CC1OC(=O)C(Br)=C1NCc1ccccc1 (stereo unspecified) | -0.0715 |
| Cc1cccnc1Nc1nc(-c2ccc(O)cc2)cs1 | -1.91 |
| O=C(Nc1ccc(N2CCOCC2)nc1)c1ccc(F)cc1 | 0.0144 |
| CCCc1ncc(C(O)(c2ccccc2)c2ccc(C)cc2)n1C (stereo unspecified) | -0.703 |
| Cc1nc2c(C(=O)NCc3ccc4c(c3)OCO4)cnn2c(C)c1Cc1ccc(F)cc1Cl | -0.281 |
| Cc1cc(C)n2nc(SCC(=O)Nc3ccc(F)cc3)nc2n1 | 0.0732 |

| SMILES | z-score |
| --- | --- |
| COc1ccc(Cl)cc1NC(=O)CSc1nnc(COc2ccccc2)n1C | 0.115 |
| O=C(NCCN1CCOCC1)c1cc2c(=O)n3ccccc3nc2n1Cc1ccccc1 | -0.597 |
| COC(=O)c1cccc(NC(=O)CSc2nc(=O)cc(N)n2-c2ccccc2)c1 | -0.849 |
| O=C(Cn1cnc2ccc(Br)cc2c1=O)c1cccs1 | -0.0739 |
| CC(C)C(=O)Nc1cc(S(=O)(=O)Nc2cccc(Cl)c2)ccc1Cl | -0.319 |
| O=C(NCCCN1CCOCC1)c1cc(-c2ccc(Cl)cc2)on1 | -0.935 |
| O=S1(=O)NC2CCCCCN2c2ccc(F)cc21 (stereo unspecified) | 1.64 |
| CC(C)NC(=O)CSc1nc2ccccc2n1-c1ccccc1 | -0.342 |
| O=C(NC1CCCCC1)C1CCCN1S(=O)(=O)c1cccc2nsnc12 (stereo unspecified) | 0.136 |
| Cc1nnc(N(C)C(=O)c2cccnc2)s1 | -0.301 |
| CCc1nc2c(sc3nc4c(cc32)COC(C)(C)C4)c(=O)n1Cc1ccco1 | 0.257 |
| CC1(C)Cn2c(nnc2-c2cccc(O)c2)S1 | -0.0205 |
| O=C(/C=C/c1ccc(F)cc1)NCc1cccs1 | -0.384 |
| CC[n+]1c(/C=C2\C=C(C)CC(C)(C)C2)sc2ccccc21 | 0.585 |
| O=C(Nc1cc(C(=O)N2CCOCC2)cc(C(=O)N2CCOCC2)c1)c1cc(F)c(F)cc1Cl | 0.199 |
| COc1ccc(-c2csc(N3CCN(C(=O)c4ccco4)CC3)n2)cc1 | -0.0853 |
| Nc1nc(NCc2ccco2)nc(N2CCCCCC2)c1[N+](=O)[O-] | -0.723 |
| CC1=Nc2cccc3cccc(c23)N1 | 0.207 |
| Cc1ccc(S(=O)(=O)Cc2cccc(C(=O)N3CCOCC3)c2)cc1 | 0.116 |
